Measured values: the supplement of paper PMC12355420
Counter-ions that a name gives are not always drawn. The list shows a part of the results. Repeats are few or missing, and single values can be far off.

System: HeLa VPS33A reporter cells
Test: relative cell viability (CellMask signal) vs DMSO (fraction of DMSO); HeLa model of a glycosaminoglycan (GAG) storage disease; KI is knock-in and KO knock-out; SDC1 is syndecan 1; higher = less cytotoxic
Conditions: 50 µM; 24 h
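Note: primary screen of an FDA-approved drug library in HeLa reporter cells in 96-well format, CellMask signal normalized to DMSO-treated wells set as 1, under 0.5 deemed highly cytotoxic.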

SMILES | relative cell viability
CC1=C(/C=C/C(C)=C/C=C/C(C)=C/C(=O)Nc2ccc(O)cc2)C(C)(C)CCC1 [Fenretinide] | 0.00554
CN(C)C(=O)C(CCN1CCC(O)(c2ccc(Cl)cc2)CC1)(c1ccccc1)c1ccccc1 [Loperamide HCl] | 0.0507
COc1cc(NS(C)(=O)=O)ccc1Nc1c2ccccc2nc2ccccc12 [Amsacrine] | 0.00487
COc1cc2c(Oc3ccc(NC(=O)C4(C(=O)Nc5ccc(F)cc5)CC4)cc3F)ccnc2cc1OCCCN1CCOCC1 | 0.00332
CCCN(CCC)C(=O)C1=Cc2ccc(-c3ccc(C(=O)N4CCCC4)cc3)cc2N=C(N)C1 [Motolimod (VTX-2337)] | 0.00973
COc1cccc2c1C(=O)c1c(O)c3c(c(O)c1C2=O)CC(O)(C(=O)CO)CC3OC1CC(N)C(O)C(C)O1 (centres undefined) [Doxorubicin (Adriamycin) HCl] | 0.00374
CN(C)[C@@H](CCOc1cccc2ccccc12)c1ccccc1 [Dapoxetine HCl] | 0.00507
O[C@@H](COc1cccc2ncccc12)CN1CCN(C2c3ccccc3[C@@H]3[C@H](c4ccccc42)C3(F)F)CC1 (some centres undefined) | 0.0414
C[C@@H](NCCCc1cccc(C(F)(F)F)c1)c1cccc2ccccc12 [Cinacalcet HCl] | 0.0138
C=CC(=O)N1CCC(Oc2cc3c(Nc4ccc(Cl)c(Cl)c4F)ncnc3cc2OC)CC1 [Poziotinib] | 0.00934
Cc1c(OCC(F)(F)F)ccnc1C[S@@+]([O-])c1nc2ccccc2[nH]1 [Dexlansoprazole] | 0.477
CCCCOc1cc(C(=O)NCCN(CC)CC)c2ccccc2n1 [Dibucaine (Cinchocaine) HCl] | 0.00554
O=S(=O)(c1cccc2cnccc12)N1CCCNCC1 [Fasudil (HA-1077) HCl] | 0.0566
CC(C)C[C@H](NC(=O)[C@@H](NC(=O)c1cccc(-c2ccccc2)n1)[C@@H](C)O)B(O)O | 0.0115
Cc1ccc([C@@H]2O[C@H](CO)[C@@H](O)[C@H](O)[C@H]2O)cc1Cc1ccc(-c2ccc(F)cc2)s1 [Canagliflozin] | 0.0129
CC(=O)OC[C@H]1O[C@@H]([S-])[C@H](OC(C)=O)[C@@H](OC(C)=O)[C@@H]1OC(C)=O.CCP(CC)CC.[Au+] [Auranofin] | 0.00366
COc1cc2/c(=N/c3ccc(Br)cc3F)nc[nH]c2cc1OCC1CCN(C)CC1 [Vandetanib (ZD6474)] | 0.00872

SMILES | relative cell viability
Cc1nc(Nc2ncc(C(=O)Nc3c(C)cccc3Cl)s2)cc(N2CCN(CCO)CC2)n1 | 0.004
COC(=O)C[C@](O)(CCCC(C)(C)O)C(=O)O[C@@H]1C(OC)=C[C@]23CCCN2CCc2cc4c(cc2[C@H]13)OCO4 [Homoharringtonine] | 0.00906
CCOC(=O)/C=C(C)/C=C/C=C(C)/C=C/c1c(C)cc(OC)c(C)c1C [Etretinate] | 0.475
Fc1ccc([C@@H]2CCNC[C@H]2COc2ccc3c(c2)OCO3)cc1 [Paroxetine HCl] | 0.00376
Clc1ccc2c(c1)C(N1CCNCC1)=Nc1ccccc1O2 [Amoxapine] | 0.0084
CN1CCC(COc2cnc(-c3cccc(Cn4nc(-c5cccc(C#N)c5)ccc4=O)c3)nc2)CC1 | 0.00442
OCc1cc(C(O)CNCCCCCCOCCCCc2ccccc2)ccc1O (centres undefined) [Salmeterol xinafoate] | 0.27
Cc1coc2c1C(=O)C(=O)c1c-2ccc2c(C)cccc12 [Tanshinone I] | 0.0331
CNC(=O)c1cc(Oc2ccc(NC(=O)Nc3ccc(Cl)c(C(F)(F)F)c3)cc2)ccn1 [Sorafenib Tosylate] | 0.0317
COc1cc(Nc2c(C#N)cnc3cc(OCCCN4CCN(C)CC4)c(OC)cc23)c(Cl)cc1Cl [Bosutinib (SKI-606)] | 0.00454
CN(C)Cc1c(C(=O)NCCOc2ccc(C(=O)NO)cc2)oc2ccccc12 | 0.024
c1coc(CNc2ncnc3[nH]cnc23)c1 [Kinetin] | 0.213
CN(C)CCCOc1nn(Cc2ccccc2)c2ccccc12 [Benzydamine HCl] | 0.179
CCOC(=O)c1c(CSc2ccccc2)n(C)c2cc(Br)c(O)c(CN(C)C)c12 [Arbidol HCl] | 0.0205
COc1cccc2c1C(=O)c1c(O)c3c(c(O)c1C2=O)C[C@@](O)(C(=O)CO)C[C@@H]3O[C@H]1C[C@H](N)[C@H](O)[C@H](C)O1 [Doxorubicin] | 0.00311
Cc1c2oc3c(C)ccc(C(=O)N[C@@H]4C(=O)N[C@H](C(C)C)C(=O)N5CCC[C@H]5C(=O)N(C)CC(=O)N(C)[C@@H](C(C)C)C(=O)O[C@@H]4C)c3nc-2c(C(=O)N[C@@H]2C(=O)N[C@H](C(C)C)C(=O)N3CCC[C@H]3C(=O)N(C)CC(=O)N(C)[C@@H](C(C)C)C(=O)O[C@@H]2C)c(N)c1=O [Actinomycin D] | 0.0113
CNCCC(Oc1ccc(C(F)(F)F)cc1)c1ccccc1 (centres undefined) [Fluoxetine HCl] | 0.00363
